# Data from PubChem BioAssay AID1671194 (National Center for Advancing Translational Sciences (NCATS), 2021).
# Out of some 140,000 compounds screened, about 240 (0.17%) were called active. The inconclusive results got no clear call from the source; some entries with a clear call stand among them for comparison. Calls come from the whole dose curve; as a rule, active = well fitted inhibition curve with a large enough effect; inconclusive = small, poorly fitted or top-dose-only effect; inactive = no such curve, though single readings can be large or run the other way. Potencies of inconclusive entries are doubtful fits and often do not repeat.
# Test: Primary qHTS assay for inhibitors of alpha-synuclein gene (SNCA) expression; note: nearly all actives have a fitted effect of over 45% in size;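 for activity change, negative = inhibition: plate controls were DMSO cells for no effect and cell-free wells for full effect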
# Conditions: HEK-293 SNCA-luciferase knock-in, luminescence, 24 h; activity change, negative = inhibition: at 57.2 µM (top of the series) unless noted
# Potency is the fitted concentration of half-maximal effect; tags give direction and shape of the fitted curve.
SMILES,Potency,"activity change, negative = inhibition"
CN(Cc1nc2ccsc2c(=O)[nH]1)C(=O)CCC1NC(=O)NC1=O (stereo not given),"inconclusive: 0.708 µM [inhibitor, partial curve, poor fit]",–
CCOC(=O)c1c(S(=O)(=O)NCC(=O)N(C)Cc2ccccc2)c(C)n(C)c1C,"inconclusive: 7.08 µM [inhibitor, single point]",–
O=C(CCc1nc(-c2ccccc2)no1)NC1CCCN(CCCc2ccccc2)C1 (stereo not given),"inconclusive: 1.78 µM [inhibitor, full curve, poor fit]",–
Cc1ccc(-c2ncc(C(=O)Nc3ccccc3)c(-c3ccncc3)n2)cc1,"inconclusive: 39.8 µM [inhibitor, single point]",–
CCc1ccc(NC(=O)c2cc(-c3ccc[nH]3)n[nH]2)cc1,–,inactive: 6.25%
Cc1ccc(Cn2c(CCNC(=O)C(C)C)nc3ccccc32)cc1,"inconclusive: 31.6 µM [inhibitor, single point]",–
O=C(NC1CCN(c2ccnc3ccnn23)C1)c1ccccc1F (stereo not given),"inconclusive: 8.91 µM [inhibitor, full curve, poor fit]",–
CCc1nc2nccc(-c3ccc(OC)cc3)n2n1,"inconclusive: 8.91 µM [inhibitor, single point]",–
CCNC(=O)C1CCN(C(=O)c2ccc3nc(-c4ccccc4)cn3c2)C1 (stereo not given),–,inactive: 64.4%
Cc1cccc(NC(=O)C2CCCN2S(=O)(=O)c2cccc3nsnc23)c1C (stereo not given),"inconclusive: 1.78 µM [inhibitor, partial curve, poor fit]",–
CN(C)c1ccc(C(CNC(=O)c2ccc(C(C)(C)C)cc2)N2CCCC2)cc1 (stereo not given),"inconclusive: 5.01 µM [inhibitor, full curve]",–
CCOCCNC(=O)C1CCN(c2nccc(Nc3ccccc3OC)n2)CC1,–,inactive: -25.4%
O[C@]12CCNC[C@H]1CN(Cc1cccc(-c3ccccc3)c1)CC2,"inconclusive: 25.1 µM [inhibitor, single point]",–
COc1ccc(N2CC(C(=O)N3CCC(C(=O)NCC(F)F)C3)NC2=O)cc1 (stereo not given),"inconclusive: 14.1 µM [inhibitor, single point]",–
C=CCN1CCN(C(=O)c2ccc(N3CC4CC(C3)[C@H]3CCCC(=O)N3C4)nc2)CC1 (stereo not given in full),"inconclusive: 2.51 µM [inhibitor, full curve, poor fit]",–
O=C(Cc1ccc2c(c1)OCO2)N1CCNc2cnc(Nc3cccc(C(F)(F)F)c3)nc2C1,"inconclusive: 12.6 µM [inhibitor, partial curve, poor fit]",–
Cc1ccc(Nc2ccc(N3CCN(C(=O)c4cccc([N+](=O)[O-])c4)CC3)nn2)cc1,"inconclusive: 2.24 µM [inhibitor, partial curve, poor fit]",–
CC[C@H](CO)Nc1nc(NCc2ccccc2)c2ncn(C(C)C)c2n1,"inconclusive: 12.1 µM [inhibitor, partial curve]",–
CCC(CC)C(=O)NC[C@@H]1C=C(C)[C@H](Cc2nc3ccccc3n2C)C[C@H]1C(C)C,"inconclusive: 22.4 µM [inhibitor, partial curve]",–
CN1C(=O)CCC2(CNC(=O)NCCc3ccccc3)CCCC=C12 (stereo not given),–,inactive: 38.3%

SMILES,Potency,"activity change, negative = inhibition"
CCC1CN(C(=O)N2CCC(C(=O)NCCCc3ccccc3)CC2)c2cc(C)ccc2O1 (stereo not given),"inconclusive: 39.8 µM [inhibitor, single point]",–
CS(=O)(=O)N1CCC(C2CCN(C(=O)NCc3ccco3)C2)CC1 (stereo not given),"inconclusive: 39.8 µM [inhibitor, single point]",–
O=C(Cc1cccc(Cl)c1)N1CCC(C(=O)N2CCCC2c2nc3ccncc3[nH]2)CC1 (stereo not given),–,inactive: -21.7%
CN(Cc1ccccc1)C(=O)CSc1c2c(nc3ccc(Cl)cc13)CCCC2,"inconclusive: 14.1 µM [inhibitor, partial curve, poor fit]",–
Cc1cc(C)cc(C(=O)N2CCN(C3CCN(CCC(C)C)C3=O)CC2)c1 (stereo not given),"inconclusive: 3.16 µM [inhibitor, single point]",–
CCOc1ccccc1C1NC(=O)N(CC(=O)Nc2ccc(CC)cc2)C2=C1C(=O)OC2 (stereo not given),"inconclusive: 5.62 µM [inhibitor, full curve, poor fit]",–
COc1ccc(-c2[nH]nc3ncc(C(=O)NCc4ccc(F)cc4)nc23)c(C)c1,"inconclusive: 2.24 µM [inhibitor, full curve, poor fit]",–
O=C(CC1C(=O)NCCN1Cc1ccc(-c2ccccc2)cc1)NCc1ccco1 (stereo not given),–,inactive: -13.6%
COc1ccc(-c2noc(CCCC(=O)NCCc3noc(-c4ccccc4)n3)n2)cc1OC,–,inactive: 14.2%
Cn1ccc(NCc2nc3c(n2Cc2ccccc2)C(=O)N(Cc2cccc(Cl)c2)CCN3)n1,"inconclusive: 8.91 µM [inhibitor, single point]",–
COc1ccc(C(=O)N2CCC[C@H]2c2nc(-c3ccc(OC)c(OC)c3)no2)cc1OC,–,inactive: 30.8%
O=C(c1cccnc1)N1CCC2(CC1)NCCc1c2[nH]c2ccccc12,"inconclusive: 8.91 µM [inhibitor, single point]",–
Cc1ccccc1C(=O)N1CCC(C(=O)N2CCC(N3CCOCC3=O)CC2)CC1,–,inactive: -4.48%
CCOc1ccc(CCNC(=O)CSCc2nc(-c3cccc(C)c3)oc2C)cc1OCC,"inconclusive: 31.6 µM [inhibitor, single point]",–
Cc1ccc(C2Cn3nnc(C(=O)N4CCN(C(=O)c5ccco5)CC4)c3CO2)cc1 (stereo not given),–,inactive: -19.1%
CCCN1C(=O)Cc2ccccc2C1C(=O)NCc1ccc(F)c(Cl)c1 (stereo not given),"inconclusive: 1.78 µM [inhibitor, partial curve, poor fit]",–
CCc1c(C(=O)N2CCCC3(CCNC3)C2)[nH]c2ccccc12 (stereo not given),"inconclusive: 4.47 µM [inhibitor, full curve, poor fit]",–
CC(C)c1ccc(S(=O)(=O)c2nnn3c2nc(NC2CCCC2)c2ccccc23)cc1,"inconclusive: 15.8 µM [inhibitor, single point]",–
COc1ccccc1-c1ccc(C(=O)N2CCC(C(=O)NCc3cccs3)CC2)cc1,–,inactive: 4.53%
Cc1nnc(N2CCN(C(=O)Nc3cc(F)ccc3F)CC2)c2nn(-c3ccc(Cl)cc3)c(C)c12,"inconclusive: 3.98 µM [inhibitor, full curve, poor fit]",–
